The values that follow come from PubChem BioAssay AID588382 (National Center for Advancing Translational Sciences (NCATS), 2011).

Among all 1,300 compounds or so, about 150 (12%) were called active. Roughly 30% stayed inconclusive and do not appear here. The call rests on the fitted dose curve; in most records, active means well fitted cell-killing curve with a large enough effect; inconclusive means small, poorly fitted or top-dose-only effect, or effect the other way; inactive means flat fitted curve, though single readings scatter. Only a part is listed here, and it is no random draw.
On the % scale 0 is the no-effect control and ±100 the full control effect; potency means the concentration at half of the fitted maximal effect.

The nature of this experiment: qHTS of small molecules that selectively kill Giardia lamblia: Hit Validation in HepG2 cytotox.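 Further: compound exposure lasted overnight at 37 deg C; nearly all actives have a fitted effect of over 55% in size.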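 On activity change, negative = cytotoxicity: viability measured as cellular ATP by ATPLite luminescence.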 The settings on record: cell viability; Potency: HepG2 cytotoxicity; series mostly up to 38.3 µM; activity change, negative = cytotoxicity: at the top concentration. In a few lines: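 Counterscreen cytotoxicity: ATPLite luminescence (15 min, room temperature) measured in HepG2 cells exposed overnight at 37 deg C to pin-transferred compound (23 nL) after overnight pre-incubation.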
Background: In qHTS, concentration-response curves come from the screen itself.
For `COc1cc(C2C(C(=O)c3ccc(C)o3)=C(O)C(=O)N2c2cc(C)on2)ccc1OCc1ccccc1` (stereo not drawn), the “activity change, negative = cytotoxicity” value is inactive: 7.43%.
For `O=[N+]([O-])c1nn(-c2ccc3c(c2)OCCO3)n(O)c1=NC1CCCCC1`, the “activity change, negative = cytotoxicity” value was inactive: -2.04%.
`COc1ccccc1NC(=O)COc1cccnc1[N+](=O)[O-]`: the “activity change, negative = cytotoxicity” value is inactive: 0.838%.
Still for that read-out and setting: then `COc1ccc(OCC(=O)NNC(=O)C2CCN(c3ncnc4sc(C)c(C)c34)CC2)cc1`, with inactive: 13%; and `Cc1c(Nc2nc3ccccc3n3cnnc23)cccc1[N+](=O)[O-]`, with inactive: 11.5%.
As to `CCS(=O)(=O)Nc1cccc(C2=NN(S(=O)(=O)c3ccc(C)cc3)C(c3ccco3)C2)c1` (stereo not drawn), the “activity change, negative = cytotoxicity” value is inactive: -18.5%.
`CSCCC(NS(=O)(=O)c1ccc2c(c1)OCCO2)C(=O)N(C)Cc1ccccc1F` (stereo not drawn): the “activity change, negative = cytotoxicity” value was inactive: 1.53%.
Consider `COc1ccc2c(c1)C1OCCC1C(c1ccco1)N2` (stereo not drawn), for which the Potency was active: 10.4 µM.
As for `Cc1ccc(SCCNC(=O)c2ccccc2F)cc1`, the “activity change, negative = cytotoxicity” value is inactive: 12.2%.
Still for that read-out and setting: then `COc1ccc2oc(C(=O)OC(C)C(=O)NCc3ccccc3)c(C)c2c1` (stereo not drawn), with inactive: 11.9%; and `O=[n+]1c2c(n([O-])c3cc(Br)ccc31)CCCC2`, with inactive: 6.84%; and `N#Cc1nc(-c2ccc(OCc3ccccc3)cc2)oc1N1CCC(C(N)=O)CC1`, with inactive: -9.71%.
`O=C(Nc1ccc(N2CCN(C(=O)c3ccccc3)CC2)cc1)c1ccc([N+](=O)[O-])o1`: the Potency is active: 4.65 µM.
In the case of `CCc1ccc(S(=O)(=O)Nc2ccc(-c3ccc4nnc(C)n4n3)cc2)s1`, the “activity change, negative = cytotoxicity” value is inactive: 2.05%.
With `COc1ccc(OC)c(/C=C/c2ccc3ccccc3n2)c1`, the “activity change, negative = cytotoxicity” value is inactive: 6.55%.
Turning to `CC1=NN(c2nc3ccccc3[nH]2)C(=O)/C1=C/N(C)C`, the Potency is active: 0.927 µM.
With `Cc1ccc([N+](=O)[O-])c(C(=O)Nc2cccnc2Cl)c1`, the “activity change, negative = cytotoxicity” value was inactive: 23.5%.
The same measure, in the same setting: then `Cc1c(C(=O)c2ccc(Cl)cc2[N+](=O)[O-])c2ccccn2c1CCC#N`, with inactive: 9.75%; and `Cc1cc(Nc2ccccc2)c2c([N+](=O)[O-])ccc(C)c2n1`, with inactive: 24.3%; and `CCCSc1ccc2nc(NC(=O)OC)[nH]c2c1`, with inactive: 4.95%.
As to `CCOC(=O)/C=C/[C@H]1CCc2cccc(Cl)c2O1`, the “activity change, negative = cytotoxicity” value is inactive: 17.4%.
For `COc1ccc(Cc2noc(CN(C)Cc3ccc(-n4cccn4)cc3)n2)cc1OC`, the “activity change, negative = cytotoxicity” value was inactive: 3.89%.
Take `COC(=O)N/N=C/c1ccc([N+](=O)[O-])s1`: the “activity change, negative = cytotoxicity” value was inactive: -20.9%.
For `Cc1cc(C)nc(N/N=C/c2ccc([N+](=O)[O-])o2)n1`, the “activity change, negative = cytotoxicity” value is inactive: -16.7%.
For the compound `Cc1cc(C)c(-n2[nH]nnc2=S)c(C)c1`, the “activity change, negative = cytotoxicity” value is inactive: 3.16%.
`CCN(Cc1ccncc1)C(=O)CC1C(=O)NCCN1Cc1ccc(F)c(F)c1` (stereo not drawn): the “activity change, negative = cytotoxicity” value was inactive: -1.32%.
The same measure, in the same setting: as for `CC(NC(=O)c1ccccc1F)c1nnc(SCC(=O)NC2CCCC2)n1C` (stereo not drawn), the figure is inactive: 10.3%.
`C(=C\c1nc2ccccc2s1)/c1ccc2c(c1)OCO2`: the Potency is active: 2.07 µM.
Consider `Cc1ccc(CSc2nnc(Cn3c(=O)sc4ccccc43)n2C)cc1`, for which the “activity change, negative = cytotoxicity” value was inactive: 11.3%.
Still for that read-out and setting: then `COC(=O)[C@]1(C)N[C@H](CN(C)S(=O)(=O)c2ccc(-c3ccccc3)cc2)[C@@H]2C(=O)N(C)C(=O)[C@@H]21`, with inactive: 16.4%; and `O=C(CNC(=O)Cc1ccccc1)N=Nc1c(O)[nH]c2ccc(Br)cc12`, with inactive: 5.1%.
Regarding `Cn1cccc1C1CCCN1CC(=O)Nc1ccc(F)c(F)c1F` (stereo not drawn), the “activity change, negative = cytotoxicity” value was inactive: 4.65%.
`Cc1onc(-c2ccccc2Cl)c1C(=O)NNC(=O)c1ccc(F)cc1`: the “activity change, negative = cytotoxicity” value was inactive: 19.2%.
As for `O=[N+]([O-])c1nn(-c2ccc3c(c2)OCCO3)n(O)c1=NCCC1=CCCCC1`, the “activity change, negative = cytotoxicity” value was inactive: 1.64%.
Take `CC(C)CC(=O)NC(=S)NNC(=O)c1ccc([N+](=O)[O-])cc1`: the “activity change, negative = cytotoxicity” value is inactive: -5.24%.
Regarding `COc1ccc(S(=O)(=O)Nc2c(O)c3ccccc3oc2=O)cc1`, the “activity change, negative = cytotoxicity” value is inactive: 15.8%.
On to `O=c1[nH][nH]c(-c2ccccc2)c1C=Nc1ccc(OC(F)(F)F)cc1`, for which the “activity change, negative = cytotoxicity” value was inactive: 14.5%.
As for `N=NC(=O)c1ccccc1Nc1c(O)[nH]c2ccccc12`, the Potency is active: 16.5 µM.
Regarding `CCC(C(=O)N1CCOCC1)n1nc(C)n2c(cc3cc(C)ccc32)c1=O` (stereo not drawn), the “activity change, negative = cytotoxicity” value is inactive: 7.22%.
For `O=C(O)c1cccc(CN2C(=O)S/C(=C/c3ccccc3[N+](=O)[O-])C2=O)c1`, the “activity change, negative = cytotoxicity” value was inactive: 8.95%.
Turning to `N=C1C(c2ccccc2)=C(O)CN1c1cccc(S(=O)(=O)N2CCOCC2)c1`, the “activity change, negative = cytotoxicity” value is inactive: 17.3%.
Same read-out and setting: as for `Cc1ccc(S(=O)(=O)N2[C@@H](c3ccccc3)C(C(=O)O)=CC[C@H]2c2cccc(Cl)c2)cc1`, the figure is inactive: 6.16%; as for `C[C@]12c3[nH]c4ccc(Cl)cc4c3CCN1C(=O)[C@@H](CC(=O)NCCN1CCOCC1)C[C@@H]2C(=O)N1CCOCC1`, inactive: 7.31%; as for `COc1cccc([C@@H]2CC=C(C(=O)O)[C@H](c3ccccc3F)N2S(=O)(=O)c2ccc(C)cc2)c1`, inactive: 8.72%.
For `CC(C)(C)[C@H](N)C(=O)N[C@H]1CCC2C3CC=C4C[C@@H](O)CC[C@]4(C)C3CC[C@@]21C` (stereo partly drawn), the Potency was active: 2.33 µM.
Consider `COc1ccc(CN(C(=O)CSc2nnc(-c3ccc(OC)c(OC)c3)o2)c2ccc(F)cc2)cc1`, for which the “activity change, negative = cytotoxicity” value was inactive: 5.51%.
With `Cc1ccc(OCC(=O)N(Cc2cccc(Cl)c2)C2CCS(=O)(=O)C2)cc1C` (stereo not drawn), the “activity change, negative = cytotoxicity” value is inactive: 0.826%.
For the compound `Cn1cc([N+](=O)[O-])c(C(=O)Nc2sc3c(c2C#N)CCC3)n1`, the Potency is active: 2.33 µM.
